{"source": "the supplement of paper PMC8728848", "binders": {"B1": {"name": "PX9937D-bvu-500-26-500 (Bacteroides vulgatus) (protein)", "chain": "DPVSDITDLNYWKTPEQFDSFVFGLHSRFRSHSWNMFLLGEARSDVFGGIPFGGEATQGMERFPYNTLNAENPGISGFGDLYQNINQMNLFISRTLHTDVLTESARNYYLGQVYGLRAYYMYQLYRSWGDVVFTEEPSLGFEVGKLAKAATPAAEIFEQVKKDIESSLSYFGSDYTIKEKKSLWSKAATLMLKADVYLWSAHRDGGEGDARTAKNALVDIQNNISRSNLDLMDTYQGVFAYDNKGNKEIIFTIHNELFEYNLWNGNNDLFPQADYLGKFYNADGTLINTSVENNFGIMRLMVKLENFKKFLPGDTRRDVTLKDVYNKVENGKLELVGVYPHKYWGVMNGSTRVRCDDYPIYRYSDLLLMLAEAKVLLGEDPATEINRVRRRAFGDAYDASTVGFPNQEVDKRPADAVLQERLFEFMLEGKRWYDLRRFGDSYVLDYTPAEPARLLWPINQGALTNNPLLKQTVGY"}}, "key": {"[1]": {"target": "Neu5Gc(a2-8)Neu5Gc(a2-6)Gal(b1-4)GlcNAc", "experiment": "glycan array binding signal (z-score within array); higher = stronger binding", "conditions": "glycan notation: IUPAC condensed, linker removed", "in_short": "(§1)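 Arrays were curated from the Consortium for Functional Glycomics database, 3228 in total, and kept only where the protein sequence was available. Binding is expressed as a within-array Z-score. This score was averaged across arrays of the same protein sequence at different concentrations or buffers and across linkers, and negative values can be read as non-binding.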"}, "[2]": {"target": "Neu5Gc(b2-6)Gal(b1-4)GlcNAc", "experiment": "glycan array binding signal (z-score within array); higher = stronger binding", "conditions": "glycan notation: IUPAC condensed, linker removed", "in_short": "as §1"}}, "note": "This is one part of the list.", "data": [{"binder": "B1", "values": [{"measurement": "glycan array binding signal (z-score)", "setting": "[1]", "value": -0.528}, {"measurement": "glycan array binding signal (z-score)", "setting": "[2]", "value": -0.259}]}]}
